PubChem BioAssay AID1030 (National Center for Advancing Translational Sciences (NCATS), 2008)
The campaign covered roughly 220,000 compounds. About 16,000 (7.3%) were called active. This list was built around the results that the source calls inconclusive (neither active nor inactive); the mix of calls is not that of the screen. Calls come from the whole dose curve; as a rule, active = well fitted inhibition curve with a large enough effect (not every such curve was filed as active); inconclusive = small, poorly fitted or top-dose-only effect, or another doubt; inactive = no such curve, though single readings can be large or run the other way. No potency is given beside an inconclusive call; the fits are too rough.

target: Aldehyde dehydrogenase 1A1 (Homo sapiens) (UniProt P00352); assay: qHTS Assay for Inhibitors of Aldehyde Dehydrogenase 1 (ALDH1A1); conditions: Purified ALDH1A1, NADH fluorescence, propionaldehyde substrate; series mostly up to 75.3 µM
Sequence of UniProt P00352 (P00352 whole entry, looked up): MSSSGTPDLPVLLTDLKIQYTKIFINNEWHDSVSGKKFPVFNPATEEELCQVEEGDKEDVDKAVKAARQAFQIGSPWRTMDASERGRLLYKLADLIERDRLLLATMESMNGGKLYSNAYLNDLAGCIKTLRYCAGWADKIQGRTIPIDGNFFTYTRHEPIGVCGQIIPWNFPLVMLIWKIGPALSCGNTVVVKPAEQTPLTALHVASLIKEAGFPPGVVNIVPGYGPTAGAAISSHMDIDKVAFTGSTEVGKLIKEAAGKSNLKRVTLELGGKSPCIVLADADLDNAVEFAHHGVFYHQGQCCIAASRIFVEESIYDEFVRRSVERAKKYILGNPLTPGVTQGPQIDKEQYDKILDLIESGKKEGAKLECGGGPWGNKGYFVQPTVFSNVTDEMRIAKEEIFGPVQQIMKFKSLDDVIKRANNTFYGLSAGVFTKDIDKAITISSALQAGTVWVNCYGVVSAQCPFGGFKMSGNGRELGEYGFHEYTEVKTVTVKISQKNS
Potency is the fitted concentration of half-maximal effect; tags give direction and shape of the fitted curve.

SMILES | Potency
COCC(C)NC(=O)c1cc(-c2ccc(OC)c(OC)c2)on1 (stereo not drawn) | inactive
Cc1c(N(C)C)nc2ccccc2c1N | inconclusive [inhibitor, partial curve, poor fit]
O=C(Nc1ccc(CN2CCCCC2)cc1)Nc1ccc(Br)cc1Cl | inactive
c1ccc(C2[C@H]3CN(CC4CCCCC4)[C@H](c4ccccc4)C34CC2(c2cccnc2)C4)cc1 (stereo partly drawn) | inconclusive [inhibitor, single point]
CCOCCCn1c(=N)c(C(=O)NCc2ccc3c(c2)OCO3)cc2c(=O)n3ccccc3nc21 | inconclusive [inhibitor, partial curve]
CCCn1c(=O)c2c(C(=O)OCC)cc(-c3ccco3)nc2n(CCC)c1=O | inconclusive [inhibitor, partial curve]
CCN(c1ccc(NC(=O)COC(=O)CCC(=O)c2ccc(F)cc2)cc1)C(C)C | inconclusive [inhibitor, single point]
Cc1ccc2nc(-c3cccc(Br)c3)cc(C(=O)NC3=NCCS3)c2c1 | inconclusive [inhibitor, single point]
OC(COCc1ccc(Cl)cc1)CN1CCN(c2ccccn2)CC1 (stereo not drawn) | inactive
Cc1oc(-c2cccs2)nc1CS(=O)CC(=O)NCCCOC(C)C (stereo not drawn) | inactive
COc1ccccc1OCC(=O)N/N=C1\CCc2ccccc21 | inconclusive [inhibitor, single point]
Cc1ccc(/C=C/C(O)=C2/C(=O)N(C)C3(C)CC2c2ccccc2O3)cc1 (stereo not drawn) | inconclusive [inhibitor, single point]
CCn1nc(NC(=O)c2ccccn2)c2cc3cccc(C)c3nc21 | inconclusive [inhibitor, partial curve]
COc1ccc(/C=C2\SC(=O)N(CCNC(=O)C3CC(=O)N(c4ccccc4)C3)C2=O)cc1 (stereo not drawn) | inconclusive [inhibitor, single point]
CC1=CC(=O)C2=C(C)C[C@H](OC(=O)Cc3ccccc3)C3[C@H](OC(=O)[C@H]3C)C12 (stereo partly drawn) | inconclusive [inhibitor, full curve]
CCN(C(=O)COc1cc(=O)n(CC)c2ccccc12)c1cccc(Cl)c1 | active: 6.31 µM
O=C(O)/C=C\C(=O)NCc1cccnc1 | inactive
CC1=C/C(=N\N=C2\NC(=O)C(CC(=O)Nc3ccccc3F)S2)CC(C)(C)C1 (stereo not drawn) | inactive
COc1ccc(C(=O)C2CCCN(C(=O)c3noc4c3CCCC4)C2)c(C)c1 (stereo not drawn) | active: 5.01 µM
NS(=O)(=O)c1ccc(NC(=S)NCCc2ccccc2)cc1 | inconclusive [inhibitor, single point]
CC(CNCC1CCCO1)COc1cccc2ccccc12 (stereo not drawn) | inconclusive [inhibitor, single point]
COc1ccc(N2CCCn3c2nc2c3c(=O)n(Cc3ccccc3F)c(=O)n2C)c(OC)c1 | active: 11.2 µM
CCCOC(=O)C1=C(C)NC2=C(C(=O)CCC2)C1c1cccc(OC)c1OC (stereo not drawn) | inconclusive [inhibitor, partial curve]
CCN(CC(=O)Nc1c(C(=O)OC)[nH]c2ccc(Cl)cc12)c1ccc2c(c1)OCO2 | inconclusive [inhibitor, single point]
Cc1ccc(C(=O)Nc2ccc(S(=O)(=O)N3CCCC3)cc2)s1 | inconclusive [inhibitor, full curve]

SMILES | Potency
CC(C)(S)[C@@H](N)C(=O)O | inactive
COc1ccc2ncc(S(=O)(=O)c3ccccc3)c(N3CCC4(CC3)OCCO4)c2c1 | active: 7.94 µM
COc1ccc(NC(=O)COc2ccc(C(=O)NC3CCCc4ccccc43)cc2OC)cc1 (stereo not drawn) | inactive
CCOc1ccc(S(=O)(=O)NCc2ccc(Cl)cc2)c2cccnc12 | inconclusive [inhibitor, partial curve]
Cc1ccc2nc(NCc3ccccc3)c(C=NCc3ccccc3)c(=O)n2c1 | inconclusive [inhibitor, single point]
Oc1ccc(/C=C/c2ccnc3ccccc23)cc1 | inconclusive [inhibitor, single point]
COc1ccc(Oc2ncc3nc(-c4ccc(F)cc4)c(=O)n(C[C@H]4CCCO4)c3n2)cc1 | inactive
O=C(O)CCC(=O)Nc1ccc(C(=O)OCC(=O)c2ccc(Cl)cc2)cc1 | inactive
CC[C@H](C)[C@@H](NC(=O)O[C@@H]1C(=O)c2cc(Br)ccc2O[C@H]1c1cccc(OC)c1)C(=O)OC | inconclusive [inhibitor, single point]
O=C(NC(=S)Nc1ccccc1[N+](=O)[O-])c1ccco1 | inconclusive [inhibitor, single point]
CCOC(=O)C1=C(O)/C(=C/c2cc(C)n(-c3ccccc3)c2C)N=C1C | inconclusive [inhibitor, single point]
O=C1c2ccccc2C(=O)N1Cc1cnc(N2CCN(c3ccccc3)CC2)s1 | inactive
CCOC(=O)CSc1nc(NCc2ccco2)c2ccccc2n1 | inconclusive [inhibitor, single point]
CN(CCC#N)S(=O)(=O)c1ccc2[nH]cc(C(=O)NCCc3ccccc3)c(=O)c2c1 | active: 25.1 µM
COc1cccc(-c2nc(CSCC(=O)N3CCc4ccccc43)c(C)o2)c1 | inconclusive [inhibitor, single point]
Cc1ccccc1Nc1nnc(SCc2cc([N+](=O)[O-])cc3c2OCOC3)s1 | inconclusive [inhibitor, single point]
O=C(c1ccccc1)c1coc2ccc(O)c(Cl)c12 | inconclusive [inhibitor, single point]
CCOC(=O)CSc1nnc(CNC(=O)c2ccc(OC)cc2)n1-c1ccc(OC)cc1 | inconclusive [inhibitor, full curve]
COc1ccc(-c2nc3ncccn3c2Nc2ccccc2)cc1 | inconclusive [inhibitor, partial curve]
CC1CCN(c2cc(N)c(Cl)cc2[N+](=O)[O-])CC1 | inconclusive [inhibitor, single point]
O=C(Oc1ccc2c(-c3ccccc3)cc(=O)oc2c1)c1cccs1 | active: 11.2 µM
CC(=O)c1ccc(NS(=O)(=O)c2ccc(N)cc2)cc1 | inactive
CC(=O)NC(Cc1ccccc1C)C(=O)NC1CCN(C(=O)c2cccc(C)c2)CC1 (stereo not drawn) | active: 20 µM
COc1ccc(NC(=O)N2CCCC(c3nc(-c4ccc(OC)cc4)no3)C2)cc1 (stereo not drawn) | inconclusive [inhibitor, single point]
CCCC(=O)Nc1c2c(nc3ccccc13)N(c1ccccc1)CC2 | inconclusive [inhibitor, partial curve]

SMILES | Potency
CN(C)CCNC(=O)NC(=O)c1ccc(Cl)cc1 | inactive
O=C(c1cc2ccccc2o1)N(C1CC1)C1(C(=O)Nc2ccccc2)CCCC1 | inactive
COc1cc(/C=N/NC(=O)c2cccnc2)ccc1OCC(=O)Nc1c(C)cc(C)cc1C | inactive
O=C(Cc1cccc2ccccc12)N1CCCc2ccccc21 | inactive
CC1CN(C(=O)C(C)N2C(=O)c3ccccc3C2=O)CC(C)O1 (stereo not drawn) | inactive
CN1CCN(/N=C2/C(=O)Nc3ccc([N+](=O)[O-])cc32)CC1 | inconclusive [inhibitor, partial curve]
COc1ccccc1C1CC(=O)Nc2cc3c(cc21)OCCO3 (stereo not drawn) | inconclusive [inhibitor, single point]
CCOc1ccccc1/C=N/OCC(=O)NCc1ccc(F)cc1 | inactive
O=C(CCS(=O)(=O)c1cccc2nsnc12)N1CCN(Cc2ccc3c(c2)OCO3)CC1 | inconclusive [inhibitor, single point]
CCc1ccc(OS(=O)(=O)c2cn(C)c(=O)n(C)c2=O)cc1 | inactive
CCCC1C(C#N)=C(N)Oc2cc(C)n(C)c(=O)c21 (stereo not drawn) | inconclusive [inhibitor, single point]
CCN1C(=O)/C(=C2/Sc3ccc(OC)cc3N2C)SC1=Nc1cccc(O)c1 | inconclusive [inhibitor, single point]
O=C(Nc1nc2nccc(-c3ccccc3)n2n1)c1ccc(F)cc1 | inactive
O=C(N=Nc1c(O)[nH]c2ccccc12)c1ccc(CN2CCOCC2)cc1 | inactive
C/C(=N\NC(=O)c1ccc(Br)cc1)c1cccc(NC(=O)c2cccnc2)c1 | inactive
Cn1c(SCc2nnc(-c3ccc(F)cc3)o2)nnc1C1COc2ccccc2O1 (stereo not drawn) | inconclusive [inhibitor, partial curve]
CCOC(=O)c1sc2ncn(/N=C/c3ccc(O)cc3)c(=O)c2c1C | active: 20 µM
Clc1ccc(-c2csc(NNC3=NCCCCC3)n2)cc1 | inconclusive [inhibitor, single point]
CC(N)(Cc1ccc(O)c(O)c1)C(=O)O (stereo not drawn) | active: 2.24 µM
COc1ccc(Cl)cc1NC(=O)c1nc2nc(C)cc(C(F)F)n2n1 | inactive
COc1ccc(-c2nc3c4ccccc4[nH]c(=O)n3n2)cc1 | inconclusive [inhibitor, single point]
O=C(CSc1cccc[n+]1[O-])c1ccc(-c2ccccc2)cc1 | inconclusive [inhibitor, single point]
Cc1c(Cl)cccc1-n1c(SCC(=O)NCc2ccccc2Cl)nnc1-c1ccncc1 | inconclusive [inhibitor, partial curve]
